PMC7653511 (Journal of immunology (Baltimore, Md. : 1950), 2020)

Tested on: HLA-E*01:01, HLA-E*01:03 and Mamu-E
Assay: Binding capacity of norleucine fluorescent standard peptide
Conditions: norleucine vs methionine in position 2 of fluorescent standard peptide

Q: For VXAPCTLLL, which Binding capacity is on record?
A: maintaining the binding capacity of methionine
